Positions count from the first letter of the chain named. The list shows a part of the results.

T1: RBFOX1 RRM (Homo sapiens, UniProt Q9NWB1 109-208)
T1 sequence: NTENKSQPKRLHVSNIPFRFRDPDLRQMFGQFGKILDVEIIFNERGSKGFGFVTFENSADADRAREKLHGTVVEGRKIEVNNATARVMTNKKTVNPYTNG

B1: CGGCUCA (DNA:RNA)
RNA: GGGAGACCGGAAUUCAGAUUGUCCCGGCUCAUUAAAUCCCGUCGUAGCCACCA
DNA 1: CAATCTGAATTCCGGTCTCCC
DNA 2: TGGTGGCTACGACGGGATT
B2: UGGUUGA (DNA:RNA)
RNA: B1 RNA with C25U, C28U, C30G
DNA 1: CAATCTGAATTCCGGTCTCCC
DNA 2: TGGTGGCTACGACGGGATT
B3: UUGGUUA (DNA:RNA)
RNA: B1 RNA with C25U, G26U, C28G, C30U
DNA 1: CAATCTGAATTCCGGTCTCCC
DNA 2: TGGTGGCTACGACGGGATT
B4: GCGAAAU (DNA:RNA)
RNA: B1 RNA with C25G, G26C, C28A, U29A, C30A, A31U
DNA 1: CAATCTGAATTCCGGTCTCCC
DNA 2: TGGTGGCTACGACGGGATT
B5: GUUCGCG (DNA:RNA)
RNA: B1 RNA with C25G, G26U, G27U, U29G, A31G
DNA 1: CAATCTGAATTCCGGTCTCCC
DNA 2: TGGTGGCTACGACGGGATT
B6: CAAGUCG (DNA:RNA)
RNA: B1 RNA with G26A, G27A, C28G, A31G
DNA 1: CAATCTGAATTCCGGTCTCCC
DNA 2: TGGTGGCTACGACGGGATT
B7: CAUCCUG (DNA:RNA)
RNA: B1 RNA with G26A, G27U, U29C, C30U, A31G
DNA 1: CAATCTGAATTCCGGTCTCCC
DNA 2: TGGTGGCTACGACGGGATT
B8: CUCCUUC (DNA:RNA)
RNA: B1 RNA with G26U, G27C, C30U, A31C
DNA 1: CAATCTGAATTCCGGTCTCCC
DNA 2: TGGTGGCTACGACGGGATT
B9: GUUGAAG (DNA:RNA)
RNA: GGGAGACCGGAAUUCAGAUUGUCCGUUGAAGUUAAAUCCCGUCGUAGCCACCA
DNA 1: CAATCTGAATTCCGGTCTCCC
DNA 2: TGGTGGCTACGACGGGATT
B10: GGCAUCA (DNA:RNA)
RNA: B1 RNA with C25G, G27C, C28A
DNA 1: CAATCTGAATTCCGGTCTCCC
DNA 2: TGGTGGCTACGACGGGATT
B11: UCUCUCA (DNA:RNA)
RNA: B1 RNA with C25U, G26C, G27U
DNA 1: CAATCTGAATTCCGGTCTCCC
DNA 2: TGGTGGCTACGACGGGATT
B12: UCGAUUC (DNA:RNA)
RNA: B1 RNA with C25U, G26C, C28A, C30U, A31C
DNA 1: CAATCTGAATTCCGGTCTCCC
DNA 2: TGGTGGCTACGACGGGATT
B13: UCGACAG (DNA:RNA)
RNA: B9 RNA with G25U, U26C, U27G, G28A, A29C
DNA 1: CAATCTGAATTCCGGTCTCCC
DNA 2: TGGTGGCTACGACGGGATT
B14: GUCGCAG (DNA:RNA)
RNA: B9 RNA with U27C, A29C
DNA 1: CAATCTGAATTCCGGTCTCCC
DNA 2: TGGTGGCTACGACGGGATT
B15: GGGUAAG (DNA:RNA)
RNA: B9 RNA with U26G, U27G, G28U
DNA 1: CAATCTGAATTCCGGTCTCCC
DNA 2: TGGTGGCTACGACGGGATT
B16: UGUUGAA (DNA:RNA)
RNA: B1 RNA with C25U, G27U, C28U, U29G, C30A
DNA 1: CAATCTGAATTCCGGTCTCCC
DNA 2: TGGTGGCTACGACGGGATT
B17: CUUGCGC (DNA:RNA)
RNA: B9 RNA with G25C, A29C, A30G, G31C
DNA 1: CAATCTGAATTCCGGTCTCCC
DNA 2: TGGTGGCTACGACGGGATT
B18: AGUGAUA (DNA:RNA)
RNA: B9 RNA with G25A, U26G, A30U, G31A
DNA 1: CAATCTGAATTCCGGTCTCCC
DNA 2: TGGTGGCTACGACGGGATT
B19: AUCCCCC (DNA:RNA)
RNA: B1 RNA with C25A, G26U, G27C, U29C, A31C
DNA 1: CAATCTGAATTCCGGTCTCCC
DNA 2: TGGTGGCTACGACGGGATT
B20: AAGGGCG (DNA:RNA)
RNA: B1 RNA with C25A, G26A, C28G, U29G, A31G
DNA 1: CAATCTGAATTCCGGTCTCCC
DNA 2: TGGTGGCTACGACGGGATT
B21: CCACUUU (DNA:RNA)
RNA: B1 RNA with G26C, G27A, C30U, A31U
DNA 1: CAATCTGAATTCCGGTCTCCC
DNA 2: TGGTGGCTACGACGGGATT
B22: GUUUCAC (DNA:RNA)
RNA: B9 RNA with G28U, A29C, G31C
DNA 1: CAATCTGAATTCCGGTCTCCC
DNA 2: TGGTGGCTACGACGGGATT
B23: UUUCGGC (DNA:RNA)
RNA: B9 RNA with G25U, G28C, A29G, A30G, G31C
DNA 1: CAATCTGAATTCCGGTCTCCC
DNA 2: TGGTGGCTACGACGGGATT
B24: GGUAUCU (DNA:RNA)
RNA: B1 RNA with C25G, G27U, C28A, A31U
DNA 1: CAATCTGAATTCCGGTCTCCC
DNA 2: TGGTGGCTACGACGGGATT
B25: AUAACUU (DNA:RNA)
RNA: B9 RNA with G25A, U27A, G28A, A29C, A30U, G31U
DNA 1: CAATCTGAATTCCGGTCTCCC
DNA 2: TGGTGGCTACGACGGGATT
B26: AAAGACA (DNA:RNA)
RNA: B1 RNA with C25A, G26A, G27A, C28G, U29A
DNA 1: CAATCTGAATTCCGGTCTCCC
DNA 2: TGGTGGCTACGACGGGATT
B27: CGGAGCC (DNA:RNA)
RNA: B1 RNA with C28A, U29G, A31C
DNA 1: CAATCTGAATTCCGGTCTCCC
DNA 2: TGGTGGCTACGACGGGATT
B28: UAGCUGU (DNA:RNA)
RNA: B1 RNA with C25U, G26A, C30G, A31U
DNA 1: CAATCTGAATTCCGGTCTCCC
DNA 2: TGGTGGCTACGACGGGATT
B29: UCCUGAC (DNA:RNA)
RNA: B9 RNA with G25U, U26C, U27C, G28U, A29G, G31C
DNA 1: CAATCTGAATTCCGGTCTCCC
DNA 2: TGGTGGCTACGACGGGATT
B30: UCUAGCU (DNA:RNA)
RNA: B1 RNA with C25U, G26C, G27U, C28A, U29G, A31U
DNA 1: CAATCTGAATTCCGGTCTCCC
DNA 2: TGGTGGCTACGACGGGATT
B31: UCUCGGA (DNA:RNA)
RNA: B1 RNA with C25U, G26C, G27U, U29G, C30G
DNA 1: CAATCTGAATTCCGGTCTCCC
DNA 2: TGGTGGCTACGACGGGATT

This assay addresses T1, RBFOX1 RRM. Briefly: EMSA; HiTS-Eq, 1 nM pool, 10 min; buffer printed only for the single-RNA assays: 10 mM Tris pH 7.5, 150 mM NaCl, 3.4 mM EDTA, 0.001% NP-40, 30 C. The conditions noted are these: tags: His6 N-terminal (pET28a); label: 5' 32P. The essentials: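 Purified RbFox RRM (wild type or mutant) was equilibrated for 10 min in 50 µL with 1 nM of a 5′-radiolabelled pool of RNA with 7 randomized nucleotides, its flanks annealed to DNA oligonucleotides, across increasing protein concentrations. Free RNA was separated by 8% native PAGE, excised, reverse-transcribed, PCR-barcoded and sequenced on an Illumina HiSeq 2500. Relative association constants came from read-count changes of each variant against the control reaction, normalised to the cognate motif.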
(In general: Mobility shift assays separate free from complexed probe on a gel.)
Take B1: the binding signal was 0.00697 KA relative to UGCAUGU.
For B2 the value was 0.0251 KA relative to UGCAUGU.
As for B3, the binding signal is 0.0126 KA relative to UGCAUGU.
Take B4: the binding signal was 0.0104 KA relative to UGCAUGU.
In the case of B5 it was 0.0138 KA relative to UGCAUGU.
For B6, the binding signal is 0.004 KA relative to UGCAUGU.
With B7, the binding signal was 0.00674 KA relative to UGCAUGU.
With B8, the binding signal was 0.0103 KA relative to UGCAUGU.
For B9 the value was 0.0191 KA relative to UGCAUGU; for B10, 0.00648 KA relative to UGCAUGU; for B11, 0.00383 KA relative to UGCAUGU.
In the case of B12 it was 0.00846 KA relative to UGCAUGU; in that of B13, 0.00975 KA relative to UGCAUGU.
For B14 the value was 0.0181 KA relative to UGCAUGU; for B15, 0.015 KA relative to UGCAUGU.
Regarding B16, the binding signal is 0.0261 KA relative to UGCAUGU.
As to B17, the binding signal is 0.0173 KA relative to UGCAUGU.
In the case of B18 it was 0.00615 KA relative to UGCAUGU.
Take B19: the binding signal was 0.00186 KA relative to UGCAUGU.
For B20, the binding signal is 0.0115 KA relative to UGCAUGU.
For B21, the binding signal is 0.00282 KA relative to UGCAUGU.
On to B22, for which the binding signal is 0.016 KA relative to UGCAUGU.
For B23 the value was 0.0103 KA relative to UGCAUGU; for B24, 0.00479 KA relative to UGCAUGU; for B25, 0.00107 KA relative to UGCAUGU.
For B26 the value was 0.00183 KA relative to UGCAUGU; for B27, 0.0278 KA relative to UGCAUGU.
For B28 the value was 0.0138 KA relative to UGCAUGU.
B29: the binding signal is 0.0129 KA relative to UGCAUGU.
For B30 the value was 0.00555 KA relative to UGCAUGU; for B31, 0.00861 KA relative to UGCAUGU.

(Values after PMC9911399, “Two distinct binding modes provide the RNA-binding protein RbFox with extraordinary sequence specificity”.)
